The source of these data is PubChem BioAssay AID1508642 (National Center for Advancing Translational Sciences (NCATS), 2021).

In all, about 43,000 compounds went through this assay and about 200 (0.47%) were called active. Inconclusive results (about 12%) are left out. Calls come from the whole dose curve; as a rule, active = well fitted cell-killing curve with a large enough effect; inconclusive = small, poorly fitted or top-dose-only effect, or effect the other way; inactive = flat fitted curve, though single readings scatter. This is one part of the list.
% is set by controls: 0 for no effect and ±100 for the full control effect.

This assay is described as follows: Cell viability qHTS assay in S16 Pmp22-F2sN cells. Note: nearly all actives have a fitted effect of over 65% in size. Particulars: S16 Pmp22-F2sN Schwann cells (luciferase reporters placed in the Pmp22 gene) viability, CellTiter-Glo, 24 h; series mostly up to 57.5 µM; activity change, negative = cytotoxicity: at the top concentration. Put shortly: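 Rat S16 Schwann reporter line, 24 h treatment with library compounds delivered at 23 nL per well. Cell viability by CellTiter-Glo luminescence.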
As to `CCCCC(=O)Nc1nnc(SCc2cc(=O)n3cc(C)ccc3n2)s1`, the “activity change, negative = cytotoxicity” value is inactive: 0.857%.

As for `O=C(Nc1ccc(F)c(F)c1)c1cc(S(=O)(=O)NCc2ccc3c(c2)OCO3)ccc1F`, the “activity change, negative = cytotoxicity” value is inactive: -6.37%.

Take `COc1ccc(C2=NC3(CCCCCC3)N(CC(=O)Nc3cccc(Cl)c3)C2=O)cc1`: the “activity change, negative = cytotoxicity” value was inactive: -23.8%.

Consider `Cc1ccn2c(Nc3ccc4c(c3)OCO4)c(-c3ccc(Cl)cc3)nc2c1`, for which the “activity change, negative = cytotoxicity” value was inactive: -0.272%.

With `COc1cccc(CNC(=O)CN2CCCN(Cc3ccccc3)S2(=O)=O)c1`, the “activity change, negative = cytotoxicity” value is inactive: -4.2%.

For `Cc1ccc(CNC(=O)CSc2nc(=O)n(Cc3ccco3)c3c2CCC3)cc1`, the “activity change, negative = cytotoxicity” value was inactive: 1.39%.

In the case of `COc1ccc(-c2c(C#N)c(SCC(=O)Nc3ccc(C)cc3)nc(C)c2C(=O)Nc2ccccc2)cc1`, the “activity change, negative = cytotoxicity” value was inactive: -5.51%.

In the case of `Cc1ccc2c(c1)cc1c(=O)n(CC(=O)NC(C)CCc3ccccc3)nc(C)n12` (stereo not given), the “activity change, negative = cytotoxicity” value was inactive: 13.1%.

`CCOc1nc(NC(=O)NS(=O)(=O)Oc2cccc(Cl)c2)nc(-c2ccccc2)n1`: the “activity change, negative = cytotoxicity” value is inactive: -0.0426%.

In the case of `Cn1c2c(c(=O)n(C)c1=O)C(c1ccccc1[N+](=O)[O-])CC(=O)N2` (stereo not given), the “activity change, negative = cytotoxicity” value is inactive: 22.6%.

Turning to `COc1ccc(-c2nn(-c3ccc(F)cc3)c3c2cnc2cc4c(cc23)OCO4)cc1`, the “activity change, negative = cytotoxicity” value is inactive: 9.46%.

In the case of `CCc1ccccc1NC(=O)CSc1nc2n[nH]c(C)c2c(=N)n1-c1cccc(C)c1`, the “activity change, negative = cytotoxicity” value is inactive: -10.5%.

Regarding `CCc1ccc(NC(=O)c2cc(S(=O)(=O)N3CCCCC3)c[nH]2)cc1`, the “activity change, negative = cytotoxicity” value was inactive: -0.36%.

On to `COc1ccc(C2c3c(n(C)c4ccccc34)C(=O)N2CC(=O)Nc2ccccc2Cl)cc1` (stereo not given), for which the “activity change, negative = cytotoxicity” value is inactive: -4.06%.

Regarding `COc1cc(NC(=O)c2cc3nc(-c4ccc(C)cc4)cc(C(F)(F)F)n3n2)cc(OC)c1OC`, the “activity change, negative = cytotoxicity” value was inactive: 27.3%.

In the case of `COc1ccc(CCNC(=O)c2c[nH]n3c(=O)c(Cc4ccccc4Cl)c(C)nc23)cc1OC`, the “activity change, negative = cytotoxicity” value was inactive: -16.9%.

With `O=C(Nc1cc(-c2nc3cc(Cl)ccc3o2)ccc1Cl)c1cccc2ccccc12`, the “activity change, negative = cytotoxicity” value was inactive: -0.532%.

For the compound `CCn1c2c(c(=O)n3ncc(C(=O)Nc4ccc(OC(F)(F)F)cc4)c13)CN(Cc1ccc(OC)cc1)CC2`, the “activity change, negative = cytotoxicity” value was inactive: -0.125%.

In the case of `COc1ccc(OCc2ccc(-c3nc(C#N)c(N4CCC(C(N)=O)CC4)o3)o2)cc1`, the “activity change, negative = cytotoxicity” value was inactive: -1.67%.

With `Cc1ccc(CNC(=O)c2nnn(Cc3ccc(F)cc3)c2N)cc1`, the “activity change, negative = cytotoxicity” value is inactive: 0.762%.

`CC(=O)c1cccc(NC(=O)Cn2c(=O)oc3cc(S(=O)(=O)NCc4ccccc4)ccc32)c1`: the “activity change, negative = cytotoxicity” value was inactive: -1.32%.

For the compound `O=S(=O)(Nc1ccc(F)cc1F)c1ccc(Br)s1`, the “activity change, negative = cytotoxicity” value was inactive: 5.21%.

For `COc1ccc(CNS(=O)(=O)c2ccc3c(c2)NC(=O)C(C)C(=O)N3)cc1` (stereo not given), the “activity change, negative = cytotoxicity” value is inactive: 18%.

Turning to `Cc1nnc(N2CCC(C(=O)N3CCCCC3)CC2)c2nn(-c3ccccc3)c(C)c12`, the “activity change, negative = cytotoxicity” value was inactive: -16.3%.

Regarding `Cc1ccc(C)c(S(=O)(=O)Nc2ccc3c(c2)CCCN3C(=O)c2cccs2)c1`, the “activity change, negative = cytotoxicity” value is inactive: -20%.

With `Cc1ccc(C)c(Nc2ncnc3c2cnn3-c2ccc(F)cc2)c1`, the “activity change, negative = cytotoxicity” value was inactive: 2.16%.

For the compound `Fc1ccc([C@@H]2Nc3ccccc3[C@@H]3C=CC[C@@H]32)cc1`, the “activity change, negative = cytotoxicity” value was inactive: -6.45%.

Consider `Cc1ccc(C)c(NC(=O)CSc2ncc3c(n2)-c2ccccc2N(Cc2ccccc2C)S3(=O)=O)c1`, for which the “activity change, negative = cytotoxicity” value is inactive: -0.412%.

With `O=C(Cn1cc(S(=O)(=O)c2ccc(Cl)cc2)c(=O)c2ccccc21)Nc1ccc2c(c1)OCO2`, the “activity change, negative = cytotoxicity” value was inactive: 12.6%.

Take `COc1ccc(/C=C/c2nc(C#N)c(N3CCCCCC3)o2)cc1OC`: the “activity change, negative = cytotoxicity” value was inactive: -29.6%.

For the compound `CCCc1c(C(=O)OCC)nnc2c(-c3ccccc3)c(C)nn12`, the “activity change, negative = cytotoxicity” value is inactive: 2.86%.

Regarding `COc1ccc(CCN2C(=O)N(c3ccc(F)cc3)C(=O)C2CC(=O)Nc2ccccc2)cc1OC` (stereo not given), the “activity change, negative = cytotoxicity” value was inactive: -3.47%.

As to `COc1ccc(CNc2n[nH]c(-c3ccco3)n2)cc1OC`, the “activity change, negative = cytotoxicity” value was inactive: -1.91%.

Turning to `CCc1ccc(Nc2ncnc3sc4c(c23)CCCC4)cc1`, the “activity change, negative = cytotoxicity” value was inactive: 5.17%.

Take `COc1cc(NC(=O)Cn2c(=O)n(Cc3ccccc3Cl)c(=O)c3cc(OC)c(OC)cc32)cc(OC)c1`: the “activity change, negative = cytotoxicity” value is inactive: 7.85%.

Turning to `Cc1ccc(-n2ncc(C(=O)N3CCN(c4ncccn4)CC3)c2C2CCN(C(=O)OC(C)(C)C)CC2)cc1`, the “activity change, negative = cytotoxicity” value is inactive: 8.64%.

For `CCCN(CCC)S(=O)(=O)c1ccc(N2CCCCS2(=O)=O)cc1`, the “activity change, negative = cytotoxicity” value was inactive: -0.0364%.

As to `CCOc1ccc(-n2cc(-c3ccccc3)c3c(NCc4ccc(F)cc4)ncnc32)cc1`, the “activity change, negative = cytotoxicity” value was inactive: -15.3%.

Take `COc1ccc(-c2cc(C(F)(F)F)nc(SCCC(=O)Nc3ccc(O)cc3)n2)cc1`: the “activity change, negative = cytotoxicity” value is inactive: -2%.

For the compound `CCn1c2ccccc2c2nnc(N3CCN(c4ccc(OC)cc4)CC3)nc21`, the “activity change, negative = cytotoxicity” value was inactive: 21.7%.

As for `CCOC(=O)Cn1nc(C)c(NC(=O)COc2ccc(C)c(C)c2)c1C`, the “activity change, negative = cytotoxicity” value is inactive: 0.0241%.

For the compound `CCN(CC)C(=O)CSc1cn(CC(=O)N2CCCCCC2)c2ccccc12`, the “activity change, negative = cytotoxicity” value is inactive: 11.4%.

In the case of `Cc1ccc(NC(=O)C2CCN(c3nc4ccccc4nc3C(F)(F)F)CC2)cc1C`, the “activity change, negative = cytotoxicity” value is inactive: -1.81%.

Take `CCCCCc1ccc(-c2ccc(C(=O)Oc3ccc(C(=O)OC)cc3)cc2)nc1`: the “activity change, negative = cytotoxicity” value is inactive: 11%.

Consider `Cc1ccc(S(=O)(=O)C2(C(=O)Nc3ccc(C(C)C)cc3)CC2)cc1`, for which the “activity change, negative = cytotoxicity” value was inactive: 3.36%.

Consider `COc1ccc(CNc2nc(-c3ccc(Cl)cc3)nn2C(=O)c2ccccc2)cc1`, for which the “activity change, negative = cytotoxicity” value is inactive: -15%.

Regarding `Cc1ccc(-c2nc(-c3cc4cccc(OCc5cccc(F)c5)c4oc3=O)no2)cc1`, the “activity change, negative = cytotoxicity” value was inactive: 3.8%.

On to `CCOc1ccc(-n2c(Cc3ccccc3)nnc2SCc2nc(-c3cccs3)no2)cc1`, for which the “activity change, negative = cytotoxicity” value was inactive: -0.321%.

Consider `COc1cccc(NC(=O)c2sc3nc(C)c(C(=O)Nc4ccc(C)cc4C)c(-c4cccs4)c3c2N)c1`, for which the “activity change, negative = cytotoxicity” value was inactive: 1.05%.

Consider `COC(=O)CN1C(=O)C(C)(C)c2cc(S(=O)(=O)NCc3ccc(Cl)cc3)ccc21`, for which the “activity change, negative = cytotoxicity” value was inactive: -8.72%.

Take `Cc1ccc2scc(N3CCN(c4cccc(C(F)(F)F)c4)CC3)c(=O)c2c1`: the “activity change, negative = cytotoxicity” value was inactive: 10.4%.

For the compound `Cc1cc(C)cc(NC(=O)C2CCN(S(=O)(=O)c3c(C)noc3/C=C/c3ccco3)CC2)c1`, the “activity change, negative = cytotoxicity” value was inactive: 25.9%.

`Cc1ccn2c(Nc3c(C)cccc3C)c(-c3ccc(Cl)s3)nc2c1`: the “activity change, negative = cytotoxicity” value is inactive: -1.83%.

With `Cc1cc(NC(=O)CSc2nc3c([nH]c4ccccc43)c(=O)n2-c2ccc(Cl)cc2)no1`, the “activity change, negative = cytotoxicity” value is inactive: 16.4%.

As to `Cc1cc(=O)n(Cc2ccccc2Cl)c2c1c(C)nn2-c1ccccc1`, the “activity change, negative = cytotoxicity” value is inactive: 1.25%.

Consider `COc1ccccc1C(=O)Nc1ccc(OCc2cc(=O)n3cccc(C)c3n2)cc1`, for which the “activity change, negative = cytotoxicity” value was inactive: 1.62%.

On to `Cc1cccc(OCc2nnc(-c3ccccc3)o2)c1`, for which the “activity change, negative = cytotoxicity” value is inactive: -7.02%.

Take `CCN1CCN(C(=O)c2ccc3c(c2)N(Cc2ccc(F)cc2)C(=O)c2ccccc2S3(=O)=O)CC1`: the “activity change, negative = cytotoxicity” value is inactive: 4.89%.

For the compound `CCOc1ccc(NC(=O)c2oc(=O)c3ccccc3c2-c2ccc(C)cc2)cc1`, the “activity change, negative = cytotoxicity” value was inactive: 12.9%.

Turning to `CCn1c2c(c(=O)n3ncc(C(=O)Nc4ccc(F)cc4Cl)c13)CN(Cc1ccc(OC)cc1)CC2`, the “activity change, negative = cytotoxicity” value was inactive: -14.6%.
